In the supplement of paper PMC4967469:

Experiments:
Assay in all cases: Viability of human cancer cell lines after 72 h of drug (GDSC screen)
[1] = compound: COc1cc(N2CCN(C)CC2)ccc1Nc1nc(N)c(C(=O)c2c(Cl)cccc2Cl)s1 [XMD14-99]; details: top dose 10.24 µM; top dose inferred
Protocol: (§1)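 Human cancer cell lines in 384-well plates, medium with 10% serum, drug for 72 h over a 256-fold dose range (nine 2-fold or five 4-fold steps up to the top dose). Adherent lines were fixed and stained with the nucleic acid dye Syto60, suspension lines read with resazurin; signal relative to control wells, capped at 0 and 100%. One two-parameter sigmoid per drug and line, fitted in a mixed model over all curves with the slope shared within a line.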

[2] = compound: Cc1cc([N+](=O)[O-])ccc1NS(=O)(=O)c1cc(Cl)ccc1Cl [FH535]; details: top dose 32 µM; top dose inferred
Protocol: as §1

[3] = compound: Cc1n[nH]c2ccc(-c3cncc(OC[C@@H](N)Cc4c[nH]c5ccccc45)c3)cc12 [A-443654]; details: top dose 1.024 µM; top dose inferred
Protocol: as §1

[4] = compound: Cc1nc(Nc2ncc(C(=O)Nc3c(C)cccc3Cl)s2)cc(N2CCN(CCO)CC2)n1 [Dasatinib]; details: top dose 1.28 µM
Protocol: as §1

[5] = compound: O=C(NC1CCNCC1)c1n[nH]cc1NC(=O)c1c(Cl)cccc1Cl [AT-7519]; details: top dose 10.24 µM; top dose inferred
Protocol: as §1

Cell Line | AUC [1] | IC50 [1] [nM] | AUC [2] | IC50 [2] [nM] | AUC [3] | IC50 [3] [nM] | AUC [4] | IC50 [4] [nM] | AUC [5] | IC50 [5] [nM]
KG-1 (acute myeloid leukaemia, suspension) | 0.896 | 10200 | 0.707 | 7130 | 0.963 | > 1020 | 0.961 | > 1280 | 0.855 | 6840
NCI-H716 (large intestine, suspension) | 0.944 | > 10200 | 0.922 | > 32000 | 0.98 | > 1020 | 0.98 | > 1280 | 0.721 | 3240
MSTO-211H (mesothelioma, adherent) | 0.991 | > 10200 | 0.854 | 21600 | 0.986 | > 1020 | 0.973 | > 1280 | 0.875 | 8450
NB13 (neuroblastoma, adherent) | 0.99 | > 10200 | 0.66 | 5240 | 0.745 | 292 | 0.91 | > 1280 | 0.907 | > 10200
ES4 (Ewing sarcoma, adherent) | 0.926 | > 10200 | 0.693 |  | 0.468 | 51.5 | 0.795 | 696 | 0.689 | 2350
LC4-1 (lymphoblastic leukaemia, suspension) | 0.835 | 7730 | 0.786 | 15500 | 0.667 | 198 | 0.975 | > 1280 | 0.266 | 127
CTB-1 (B-cell lymphoma, suspension) | 0.943 | > 10200 | 0.787 | 19700 | 0.781 | 596 | 0.902 | > 1280 | 0.706 | 3040
EJM (lymphoid neoplasm, semi-adherent) | 0.979 | > 10200 | 0.66 | 5120 | 0.806 | 424 | 0.97 | > 1280 | 0.634 | 1410
RS4-11 (leukaemia, suspension) | 0.937 | > 10200 | 0.802 | 14200 | 0.683 | 198 | 0.955 | > 1280 | 0.262 | 144
TE-10 (oesophagus, adherent) | 0.988 | > 10200 | 0.6 | 3740 | 0.55 | 87.5 | 0.455 | 60.3 | 0.637 | 1520
EHEB (lymphoid neoplasm, suspension) |  |  | 0.754 | 15500 | 0.762 | 535 | 0.813 | 1140 |  | 
NCI-H1963 (small cell lung carcinoma, suspension) |  |  | 0.711 | 7190 | 0.791 | 397 | 0.991 | > 1280 |  | 
A101D (melanoma, adherent) | 0.981 | > 10200 | 0.613 | 4390 | 0.601 | 129 | 0.733 | 437 | 0.851 | > 10200

By IC50 is meant the dose at which the fit gives 50% viability; fits outside the tested doses are given as limits. AUC, from the same fit, is the share of area under the viability curve across the 256-fold dose range: 1 means no effect, lower means more sensitive. For some of these results: The top dose, if marked as inferred, was derived from the fitted curves, not read from the paper.
